Measured values as given in patent publication US20240158448A1 (published 2024).

Biological target: nS-L
Test: fluorescence microscopy saturation binding; fixed THP-1 macrophages

Kd: 33 µM
B1: SIRPα (receptor)
chain: not shown
